Experimental data as given in PubChem BioAssay AID360 (National Center for Advancing Translational Sciences (NCATS), 2006).
About 550 (1.1%) of roughly 48,000 compounds were called active. Not shown: some 4% with an inconclusive outcome. Rule as the data show it: active = potency below about 15 µM; inconclusive = mostly about 16 µM to 33 µM; inactive = weaker than that. This is one part of the list.

biological target: Lysosomal acid glucosylceramidase (Homo sapiens) (UniProt P04062); assay: Glucocerebrosidase; settings: purified enzyme, resorufin glucoside fluorescence (screen aimed at inhibitors), 20 min; series mostly up to 77 µM;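 also: the screen sought inhibitors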
Sequence of UniProt P04062 (P04062 whole entry, looked up): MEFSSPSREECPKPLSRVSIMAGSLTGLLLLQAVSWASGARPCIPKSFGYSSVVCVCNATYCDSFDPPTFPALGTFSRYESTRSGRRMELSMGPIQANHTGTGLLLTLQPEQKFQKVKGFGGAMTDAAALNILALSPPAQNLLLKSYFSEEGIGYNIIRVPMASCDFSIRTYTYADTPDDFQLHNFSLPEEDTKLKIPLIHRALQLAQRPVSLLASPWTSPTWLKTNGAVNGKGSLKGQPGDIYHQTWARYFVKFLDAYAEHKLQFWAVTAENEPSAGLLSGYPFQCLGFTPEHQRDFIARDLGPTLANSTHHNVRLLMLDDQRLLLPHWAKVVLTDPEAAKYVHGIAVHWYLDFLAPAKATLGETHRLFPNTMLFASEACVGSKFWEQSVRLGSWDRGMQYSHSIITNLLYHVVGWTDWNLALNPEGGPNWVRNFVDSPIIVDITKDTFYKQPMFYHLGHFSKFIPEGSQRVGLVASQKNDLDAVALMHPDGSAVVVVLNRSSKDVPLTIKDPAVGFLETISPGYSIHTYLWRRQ
Procedure, shortened: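 Wild-type enzyme at 0.2 nM final in 50mM citric acid/KH2PO4, 10mM sodium taurocholate, 0.01% tween-20, pH 5.9, with resorufin beta-D-glucopyranoside at 30 uM final. Compounds titrated, 20 min at RT, red fluorescence read; AC50 from titration.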
Potency is read from the fitted curve at half-maximal effect.

Potency, inactive:
CCOC(=O)N1CCN(Cc2nc3c(c(=O)n(C)c(=O)n3C)n2Cc2ccccc2C)CC1 > 76.9 µM
Cc1noc(C)c1CSc1nnc2sc3ccccc3n12 > 76.9 µM
CCOc1ccc2[nH]c(=O)c(CN(Cc3ccco3)C(=O)c3cccc(F)c3)cc2c1
CC1(C)CN=C(N2CCN(C3=NCC(C)(C)S3)CC2)S1 > 76.9 µM
Cc1cc2nnc(SC(C)C#N)n2c2ccccc12 (stereo not given) > 76.9 µM
COC(=O)[C@@H](NC(=O)NCc1cccc(OC)c1)C(C)C > 76.9 µM
Cc1onc(-c2ccccc2)c1C(=O)Nc1ccncc1 > 76.9 µM
CCOC(=O)Cc1csc(NC(=O)CN2C(=O)c3ccccc3S2(=O)=O)n1 > 76.9 µM
CS(=O)(=O)NC1c2cccc3cccc(c23)C1N1CCOCC1 (stereo not given) > 76.9 µM
Cc1ccc(-c2nnn(Cc3nc(N)nc(N4CCOCC4)n3)n2)cc1 > 76.9 µM
COC(=O)c1ccc(OC(=O)c2ccco2)cc1 > 76.9 µM
O=C(CSc1nc2cc(S(=O)(=O)N3CCOCC3)ccc2o1)NC1CCCc2ccccc21 (stereo not given) > 76.9 µM
CCOC(=O)c1ccc(NC(=O)Cn2nnc(-c3ccccc3C)n2)cc1 > 76.9 µM
O=C(Cc1ccccc1)NC(NCCCN1CCOCC1)(C(F)(F)F)C(F)(F)F > 76.9 µM
CNC(=O)CN(Cc1ccccc1)S(=O)(=O)c1ccccc1 > 76.9 µM
Cc1cc(C)n(CCc2nc3c4ccccc4n(CC(=O)Nc4ccc(Cl)cc4F)c(=O)n3n2)n1 > 76.9 µM
CCOC(=O)C1=C(N)OC2=C(C(=O)CC(C)(C)C2)C1c1ccoc1 (stereo not given) > 76.9 µM
O=C(Nc1ccc(N2CCN(C(=O)c3ccccc3)CC2)cc1)c1ccc(Br)o1 > 76.9 µM
COC(=O)CN(c1ccc(OC)cc1)S(=O)(=O)c1c(C)noc1C > 76.9 µM
CC1=CCC2C(=O)N(c3nc(C)cc(C)n3)C(=O)C2C1 (stereo not given) > 76.9 µM
COc1ccc(OC)c(N2C(=O)CC(Cc3ccc(C)cc3)C2=O)c1 (stereo not given) > 76.9 µM
COc1ccc(CNS(=O)(=O)c2ccc(OC)cc2)cc1 > 76.9 µM
CC(C)CN(CC(C)C)S(=O)(=O)N1CCC(C(=O)NC2CCCCCCC2)CC1 > 76.9 µM
Cc1cc(C(=O)CSc2nnc(-c3ccccc3F)o2)c(C)n1Cc1cccs1 > 76.9 µM
Cn1c(=O)oc2cc(S(=O)(=O)N3CCN(C(=O)c4ccco4)CC3)ccc21 > 76.9 µM
Cc1nc2ccc(S(=O)(=O)N(C)CC(=O)N3CCc4ccccc43)cc2s1 > 76.9 µM
CC1CN(C(=O)c2cccs2)CCN1C(=O)c1cccs1 (stereo not given) > 76.9 µM
COCC(=O)N(Cc1ccco1)c1nnc(C2CCOC2)s1 (stereo not given) > 76.9 µM
CN(C)C(=O)CN(C)S(=O)(=O)c1ccc(Cl)cc1 > 76.9 µM
CC1(C)CC(=O)C2=C(C1)OC(c1ccncc1)C(C#N)=C2N (stereo not given) > 76.9 µM
O=C(c1cc2ccccn2n1)N1CCN(c2cccc(C(F)(F)F)c2)CC1 > 76.9 µM
NC(=O)c1ccccc1OCC(=O)NS(=O)(=O)c1ccccc1 > 76.9 µM
COc1ccc2nc(SCC(N)=O)[nH]c2c1 > 76.9 µM
Cc1ccc2nc(NCCO)nc(-c3ccccc3)c2c1 > 76.9 µM
O=C(CCCN1C(=O)CCC1=O)Nc1ccc(Cl)c(C(F)(F)F)c1 > 76.9 µM
O=C1CC(C(=O)Nc2ccccc2)N=C(N2CCCCC2)N1 (stereo not given) > 76.9 µM
CC(=O)c1cc(F)c(N2CCN(C(=O)Cc3ccccc3)CC2)cc1C > 76.9 µM
CN(C)CCCN1C(=O)C(=O)/C(=C(/O)c2ccncc2)C1c1cccc(Br)c1 (stereo not given) > 76.9 µM
Clc1ccc(Br)cc1-c1nc(-c2ccncc2)no1 > 76.9 µM
Cc1cc(=O)oc(C)c1C(=O)NCc1ccc(F)cc1 > 76.9 µM
NS(=O)(=O)c1ccc(NCc2c(F)cccc2Cl)cc1 > 76.9 µM
CCOc1ccccc1NC(=O)NC1CC2CCCC(C1)N2Cc1nnnn1CCc1ccccc1 (stereo not given) > 76.9 µM
CCCN(CCC)c1nc2ccccc2nc1C(C#N)C(=O)OCCOC (stereo not given) > 76.9 µM
CC1(C)NC(=O)N(CC(O)COc2ccc(-c3ccccc3)cc2)C1=O (stereo not given) > 76.9 µM
Cc1ccc2nsnc2c1S(=O)(=O)N1CCCC1 > 76.9 µM
Cc1cnc(NC(=O)c2ccco2)s1 > 76.9 µM
CCOc1ccc(Cc2nn[nH]n2)cc1 > 76.9 µM
Cc1ccc2nc(SCCC#N)nc(C)c2c1 > 76.9 µM
O=C(COc1ncnc2sccc12)Nc1ccc2c(c1)OCCO2 > 76.9 µM
CCOC(=O)c1ccc2c(c1)N(Cc1ccccc1C)C(=O)c1ccccc1S2=O (stereo not given) > 76.9 µM
COc1ccc2[nH]c(C(=O)O)c(CCC(=O)O)c2c1 > 76.9 µM
O=C1COc2ccc(C(=O)COC(=O)C3CCN(S(=O)(=O)c4cccs4)CC3)cc2N1 > 76.9 µM
COc1ccc2[nH]c(=O)c(CN(C(=O)COc3ccccc3)C(C)C)cc2c1 > 76.9 µM
O=C(CN1CCOc2ccccc21)NCc1cccs1 > 76.9 µM
COc1ccc(Cl)cc1NC(=O)CN1C(=O)CCS(=O)(=O)c2ccccc21 > 76.9 µM
Cc1cc(C)nc(-n2nc(C)cc2NC(=O)COC(=O)CCC(=O)c2cccs2)n1 > 76.9 µM
CC1Cc2ccccc2N1C(=O)CSc1nnc2sc3ccccc3n12 (stereo not given) > 76.9 µM
COc1ccccc1-c1cc(C(=O)NC(C)c2ccccc2)no1 (stereo not given) > 76.9 µM
CCOc1ccc(OCC)c(NC(=O)CSc2nnc(Cn3cnc4ccccc43)n2C)c1 > 76.9 µM
COc1nc(Oc2ccc(=O)[nH]n2)nc(N2CCOCC2)n1 > 76.9 µM
CC(=O)NCCOc1cccc2ccccc12 > 76.9 µM
COc1ccc(N(C(C)=O)C2C=CS(=O)(=O)C2)c(OC)c1 (stereo not given) > 76.9 µM
O=C(Nc1ccc2c(c1)OCO2)C1CCCN(S(=O)(=O)c2cccs2)C1 (stereo not given)
COc1ccc(CCNc2oc(-c3ccccc3OC)nc2C#N)cc1 > 76.9 µM
CCOc1ccc(N2C(=O)c3cccnc3C2Nc2ccc(F)cc2)cc1 (stereo not given) > 76.9 µM
CCC1=[N+]([O-])C(C)(/C(C)=N\O)N(O)C1(C)C (stereo not given) > 76.9 µM
CC(C)(C)NC(=O)C(c1ccccn1)N(C(=O)c1ccc2c(c1)OCCO2)C1CCCC1 (stereo not given) > 76.9 µM
COCCN(C(=O)Cn1nnc2ccccc21)C(C(=O)NC1CCCC1)c1cc(OC)ccc1OC (stereo not given) > 76.9 µM
CCOC(=O)Cc1csc(NC(=O)COc2ccccc2)n1 > 76.9 µM
O=C(NCc1ccc(F)cc1)C1CCN(C(=O)NCc2ccccc2)CC1 > 76.9 µM
O=C(NCCCN1CCCC1=O)c1nnc(Cc2c(F)cccc2Cl)o1 > 76.9 µM
CC(=O)Nc1ccc(S(=O)(=O)N(C2=NCC(C)S2)c2ccccc2)cc1 (stereo not given) > 76.9 µM
CCn1c(SCC(=O)Nc2cccc(OC)c2)nnc1-c1ccc(Cl)cc1 > 76.9 µM
Cc1ccc(NC(=O)COC(=O)CN2CSCC2=O)cc1C > 76.9 µM
CCOC(=O)C(NC(=O)Nc1ncccn1)(Oc1ccccc1)C(F)(F)F (stereo not given) > 76.9 µM
CCS(=O)(=O)N1CCC(C(=O)NCc2ccc(F)cc2)CC1 > 76.9 µM
Cc1ccc(S(=O)(=O)N2c3ccccc3NC(=O)C2CC(=O)Nc2ccccc2)cc1 (stereo not given) > 76.9 µM
O=C(Oc1ccccc1)c1cc2ccccc2o1 > 76.9 µM
CCn1c(SCC(=O)NCc2ccc3c(c2)OCO3)nnc1-c1cccs1 > 76.9 µM
O=C(CN1C(=O)NC2(CCCCC2)C1=O)Nc1ccc(S(=O)(=O)N2CCOCC2)cc1 > 76.9 µM
CC(=O)c1ccc(N2CCN(C(=O)C3CCC3)CC2)cc1 > 76.9 µM
CCCc1[nH]nc2c1C(c1ccc(OC)c(Cn3nnc4ccccc43)c1)C(C#N)=C(N)O2 (stereo not given) > 76.9 µM
CCCC(=O)NCCc1nc2ccccc2n1C > 76.9 µM
CCOc1ccccc1C(=O)N(Cc1cccs1)C1CCS(=O)(=O)C1 (stereo not given) > 76.9 µM
O=C1C(=O)N(CCCN2CCOCC2)C(c2cccs2)/C1=C(/O)c1ccc2c(c1)OCO2 (stereo not given) > 76.9 µM
Cc1cc(NC(=O)CSc2ccccc2)no1 > 76.9 µM
O=C(COC(=O)c1cccnc1)Nc1ccc(F)cc1 > 76.9 µM
Fc1ccc(C(c2nnnn2C2CCCC2)N2CCN(Cc3ccccc3)CC2)cc1 (stereo not given) > 76.9 µM
Cn1c(SCC(=O)NC2CC2)nnc1-c1ccco1 > 76.9 µM
O=C(CCn1c(=S)[nH]c2cc3c(cc2c1=O)OCO3)N1CCN(C2CCCCC2)CC1 > 76.9 µM
